Measurements published in a compilation of properties of binary mixtures (doi:10.1016/j.molliq.2021.115610).
Some of these densities may be calculated back from excess volumes.

Assay: xn = mol fraction of the nth substance listed
Conditions: 298 K, 101 kPa

Question: Which results are given for `CCCC[NH3+].O=[N+]([O-])[O-]` + O?
Answer: mass density (x2 = 0.112): 1105.1 kg/m3; mass density (x2 = 0.2): 1104.4 kg/m3; mass density (x2 = 0.95): 1037.3 kg/m3

Question: Which mass density (x2 = 0) does the source give for `CC[NH3+].O=[N+]([O-])[O-]` + O here?
Answer: Its mass density is 1211.2 kg/m3.

Question: And the mass density (x2 = 0.1)?
Answer: The mass density was 1208.5 kg/m3.

Question: And the mass density (x2 = 0.198)?
Answer: Its mass density is 1204.9 kg/m3.

Question: What about the mass density (x2 = 0.294) of the same compound?
Answer: The mass density was 1200.7 kg/m3.

Question: And the mass density (x2 = 0.394)?
Answer: Its mass density is 1194.4 kg/m3.

Question: What about the mass density (x2 = 0.5) of the same compound?
Answer: Its mass density is 1186.5 kg/m3.

Question: What about the mass density (x2 = 0.6) of the same compound?
Answer: The mass density was 1175.6 kg/m3.

Question: And the mass density (x2 = 0.799)?
Answer: The mass density was 1133.4 kg/m3.

Question: What about the mass density (x2 = 0.9) of the same compound?
Answer: Its mass density is 1089.7 kg/m3.
